From the RNAGym collection of RNA variant scans (doi:10.1093/nar/gkz1192) come the findings set out here.

Read counts are not given, so values of variants with three or more changes are uncertain.

The chains are these.
B1: CPEB3 Ribozyme (parent)
chain: UAACAGGGGGCCACAGCAGAAGCGUUCACGUCGCAGCCCCUGUCAGAUUCUGGUGAAUCUGCGAAUUCUGCUGUAUAUCUC

In the series the parent is B1. Description: self-cleavage, relative activity (ratio to wild type); higher = more cleavage; in vitro, sequencing. The method in brief: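 After error-prone PCR and barcoding, CPEB3 ribozyme mutant libraries were transcribed with T7 RNA polymerase at 37°C for 5 hours, then given 15 min with DNase I before an EDTA stop, and they cleaved during both steps. Reverse transcription with template switching preceded Illumina sequencing. Relative activity divides a variant's cleaved/total read fraction by the unmutated ribozyme's. At least 5 reads were required per variant, and three batches were averaged.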
UAACAGGGGGCCACAGCAGAAGCGUUCACGUCGCUGCCCCUGUCAGAUUCUGGUGAAUCUGCGAAUUCUGCUGUAUACCCC [A35U U78C U80C]: the self-cleavage is 0.4.
With UAACAGGGGGCCACAGCAGAAGCGUUCACGUCGCUGCCCCUGCCAGACUCUGGUGAAUCUGCGAAUUAUGCUGUAUAUCUC [A35U U43C U48C C68A], the self-cleavage was 0.1.
In the case of UAACAGGGGGCCACAGCAGAAGCGUUCACGUCGCUGCCCCUGUCAGAUUCUGGUGAACCUGCGAAUUCUGCGGUAUAUCUC [A35U U58C U72G] it was 0.16; in that of UAACAGGGGGCCACAGCAGAAGCGUUCACGUCGCUGCCCCUGUCAGAUUCUGGUGAAUCUGCGAAUUCUGCCGUAUAUCCC [A35U U72C U80C], 0.67; in that of UAACAGGGGGCCACAGCAGAAGCGUUCACGUCGCAACCCUUGCCAGAUUCUGGUGAAUCUGCGAACUCAGCUGUAUAUCUC [G36A C40U U43C U66C U69A], 0.13.
The value for UAACAGGGGGCCACAGCAGAAGCGUUCACGUCGCUGCCCCUGUCAGAUUCUGGGGAAUCCGCGAAUUCUGCUGUAUAUCUC [A35U U54G U60C] was 0.14; that for UAACAGGGGGCCACAGCAGAAGCGUUCACGUCGCAACCCCUGUCAGAUUCAGGUGAAUCUGCGAAUUCUGCUUUAUAUCUC [G36A U51A G73U] was 0.28; that for UAACAGGGGGCCACAGCAGAAGCGUUCACGUCGCUGCCCCUGUCAGAUUCUGGUGAACCUGCGAAUUCUACUGUAUAACAC [A35U U58C G70A U78A U80A] was 0.12.
In the case of UAACAGGGGGCCACAGCAGAAGCGUUCACGUCGCUGCCCCUGUCAGAUUCCGGUGAAUCUGCUAAUUCUGCUGUAAAUCUC [A35U U51C G63U U76A] it was 0.36; in that of UAACAGGGGGCCACAGCAGAAGCGUUCACGUCGCUGCCCCUGUCAGAUUCUGGCGAAUCUGCGGAUUCUGCUGUAUAUCUC [A35U U54C A64G], 0.35.
UAACAGGGGGCCACAGCAGAAGCGUUCACGUCGCAACCCCUGUCAGAUUCUGGUGAGUCAGCGAAAUCCGCUGUAUAUCUC [G36A A57G U60A U66A U69C]: the self-cleavage is 0.1.
Take UAACAGGGGGCCACAGCAGAAGCGUUCACGUCGCAACCCCGGUCAGACUCUGGUGAGUCUGCGAAUUCUGCUGAAUAUCUC [G36A U41G U48C A57G U74A]: the self-cleavage turned out to be 0.09.
In the case of UAACAGGGGGCCACAGCAGAAGCGUUCACGUCGCUGCCCCUGUCAGAAUCUGGUGAAUCUGCGAAUUCCGCUGUAUAUCUC [A35U U48A U69C], the self-cleavage came to 0.41.
The value for UAACAGGGGGCCACAGCAGAAGCGUUCACGUCGCAACCCCUGUCAGAUACUCGCGAAUCUUCGAAUUCCGCUGUAUAUCUC [G36A U49A G52C U54C G61U U69C] was 0.07; that for UAACAGGGGGCCACAGCAGAAGCGUUCACGUCGCUGCCCCUGUCAGACUCUGGUGAAUCUGCGAAUCCCGCUGUAUAUCUC [A35U U48C U67C U69C] was 0.13; that for UAACAGGGGGCCACAGCAGAAGCGUUCACGUCGCUGCCCCUGUCAGAUUCCGGUGAGUCUGCGAAUUCAGCUGUAUAUCUC [A35U U51C A57G U69A] was 0.24.
As to UAACAGGGGGCCACAGCAGAAGCGUUCACGUCGCAACCCCUGUCAGAUUCUGGUGAACCCGCGAAUUCUGCUGUAUGCCUC [G36A U58C U60C A77G U78C], the self-cleavage stood at 0.05.
The value for UAACAGGGGGCCACAGCAGAAGCGUUCACGUCGCUGCCCCUGUCAGAUUCUGGCGAAUCUGCGAAUUCUGCUUUAUGUCUC [A35U U54C G73U A77G] was 1.21; that for UAACAGGGGGCCACAGCAGAAGCGUUCACGUCGCUGCCCCUGUCAGAUUCAGGAGAAUCUGCGAAUUCUGCUGUAUAUAUC [A35U U51A U54A C79A] was 0.72; that for UAACAGGGGGCCACAGCAGAAGCGUUCACGUCGCACACCCUGUCAGAUUCUGGUGAUUCUGCGAAUUCUGCUGUAUAUCUC [G36C C37A A57U] was 0.24.
The value for UAACAGGGGGCCACAGCAGAAGCGUUCACGUCGCAACCCCUGUCAGAUUCUGGCGAAUCUGCGAAUUCUGCAGUAUAUCUC [G36A U54C U72A] was 0.14; that for UAACAGGGGGCCACAGCAGAAGCGUUCACGUCGCACCCCCUGUCAGAUUCUGGUGAAUCUGCGUAUUCUGCCGUAUAUCUC [G36C A64U U72C] was 0.11; that for UAACAGGGGGCCACAGCAGAAGCGUUCACGUCGCAACCCCUGUCGGAUUCUGGUGAAUCUGCGAAUUCUGCUGUCUAUCUC [G36A A45G A75C] was 0.19.
In the case of UAACAGGGGGCCACAGCAGAAGCGUUCACGUCGCUGCCCCUGCCAGAUUCCGGUGAAUCUGCGAAUUCUGCUGUAUAUCUC [A35U U43C U51C], the self-cleavage is 0.26.
The value for UAACAGGGGGCCACAGCAGAAGCGUUCACGUCGCUGCCCCUGCCAGAUCCUGGUGUAUCUGCGAAUUCCGCUGUAUAUCUC [A35U U43C U49C A56U U69C] was 0.08; that for UAACAGGGGGCCACAGCAGAAGCGUUCACGUCGCUGCCCCUGUCAGAUUCCGGUGAAUCUGCGAAUCCUGCUGUAUAUCUC [A35U U51C U67C] was 0.33; that for UAACAGGGGGCCACAGCAGAAGCGUUCACGUCGCAACCCCUGUCAGAUUCUGGUGAACCUGCGAAUUCCGCUGUAUAUCAC [G36A U58C U69C U80A] was 0.12.
Regarding UAACAGGGGGCCACAGCAGAAGCGUUCACGUCGCUGCCCCUGUCAGAUCCUGGUGAGUCUGCGUAUUCUGCUGUAUAUCUC [A35U U49C A57G A64U], the self-cleavage was found to be 0.07.
The value for UAACAGGGGGCCACAGCAGAAGCGUUCACGUCGCUGCCCCUGUCAGAUUCAGAGGAAUCUGCGAAUUCUGCUGUAUAACUC [A35U U51A G53A U54G U78A] was 0.54; that for UAACAGGGGGCCACAGCAGAAGCGUUCACGUCGCUGCCCCUGUCAGAUUCUGGUGAAACUGUGAAUUCUGCUGUAUAUCUC [A35U U58A C62U] was 0.08.
In the case of UAACAGGGGGCCACAGCAGAAGCGUUCACGUCGCAACCCCUGUCAGAUUCUGGUGAAUCAGCGAAUUCUGCUGUGUAUCUC [G36A U60A A75G] it was 0.17; in that of UAACAGGGGGCCACAGCAGAAGCGUUCACGUCGCUGCCCCUGUCAGAUUCUGGUGAAUCCGCGUAUUCUGCUGUAUAUCUC [A35U U60C A64U], 0.39.
The value for UAACAGGGGGCCACAGCAGAAGCGUUCACGUCGCUGCCCCUGUCAGAUUCCGGUGAAUCUGCGAAUUCUGCUGUAUAUCCC [A35U U51C U80C] was 0.69; that for UAACAGGGGGCCACAGCAGAAGCGUUCACGUCGCUGCCCCUGCCAGAUUCUGGUGAGUCAGCGAAUUCUGCUGUAUGUCUC [A35U U43C A57G U60A A77G] was 0.07.
